Laboratory results reported in paper PMC4891693, “Discovery of prenylated flavonoids with dual activity against influenza virus and Streptococcus pneumoniae” (Scientific Reports, 2016).
Converted amounts (≈) assume the structure as drawn.

tested on: NA of influenza virus A/Jena/5258/2009 (5258/09)

Compound | MIC in HA assay against IAV 5258/09 [µM]
O=C1CC(c2ccc(O)c(O)c2)Oc2cc(O)cc(O)c21 (racemic) [Compound 11, (±)-eriodictyol] | 77.2 ± 35.3 (≈ 22.3 µg/mL)
CC(C)=CCc1cc(C2CC(=O)c3ccc(O)cc3O2)ccc1O (racemic) [Compound 18, (±)-abyssinone II] | 100 ± 0.00 (≈ 32.4 µg/mL)
CC(C)=CCC/C(C)=C/Cc1c(O)cc(O)c2c1OC(c1ccccc1)CC2=O (racemic) [Compound 24, (R,S)-8-geranyl-5,7-dihydroxyflavanone] | 20.8 ± 10.8 (≈ 8.16 µg/mL)
CC(C)=CCc1c(O)cc(O)c2c1O[C@@H](c1ccc(O)cc1)[C@H](O)C2=O (relative stereo) [Compound 23, (2R,3R)-rel-4H-2,3-dihydro-3,5,7-trihydroxy-2-(4-hydroxyphenyl)-8-(3-methyl-2-buten-1-yl)-1-benzopyran-4-one] | 100 ± 0.00 (≈ 35.6 µg/mL)
CC(C)=CCC/C(C)=C/Cc1c(O)ccc([C@@H]2CC(=O)c3c(O)cc(O)cc3O2)c1O [Compound 5, sanggenol A] | 31.6 ± 0.00 (≈ 13.4 µg/mL)
O=c1c(O)c(-c2ccc(O)cc2O)oc2cc(O)cc(O)c12 [Compound 16, morin] | 70.7 ± 36.6 (≈ 21.4 µg/mL)
COc1cc(C2CC(=O)c3c(O)cc(O)cc3O2)cc(CC=C(C)C)c1O (centres unmarked) [Compound 21, 2,3-dihydro-5,7-dihydroxy-2-[4-hydroxy-3-methoxy-5-(3-methyl-2-butenyl)phenyl]-4H-1-benzopyran-4-one] | 86.3 ± 30.6 (≈ 32 µg/mL)
COc1cc(C2CC(=O)c3c(cc(O)c(CC=C(C)C)c3O)O2)ccc1O (centres unmarked) [Compound 22, 2,3-dihydro-5,7-dihydroxy-2-(4-hydroxy-3-methoxyphenyl)-6-(3-methyl-2-buten-1-yl)-4H-1-benzopyran-4-one] | 100 ± 0.00 (≈ 37 µg/mL)
CC(C)=CCc1c(O)c(CC=C(C)C)c2c(c1O)C(=O)C[C@@H](c1ccc(O)cc1)O2 [Compound 28, 6,8-diprenylnaringenin] | 54.4 ± 35.3 (≈ 22.2 µg/mL)
CC(C)=CCc1c(O)cc(CCc2ccccc2)c(CC=C(C)C)c1O [Compound 33, 2,4-bis(3-methyl-2-buten-1-yl)-5-(2-phenylethyl)-1,3-benzenediol] | 31.6 ± 0.00 (≈ 11.1 µg/mL)
CCC(CC)O[C@@H]1C=C(C(=O)O)C[C@H](N)[C@H]1NC(C)=O [Oseltamivir carboxylate GS4071, reference compound] | 0.002 ± 0.001 (≈ 0.000569 µg/mL)
